Out of some 110,000 compounds screened, about 230 (0.21%) showed an effect of 50% or more. This is one part of the list.

The record followed here is article PMC6919601, “Identification of Plasmodium dipeptidyl aminopeptidase allosteric inhibitors by high throughput screening” (PLoS ONE, 2019).
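Further: 30 min substrate incubation versus DMSO and 10 µM JCP410 controls.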

Sequence of DPAP1 (Q8IIJ9 whole entry, looked up): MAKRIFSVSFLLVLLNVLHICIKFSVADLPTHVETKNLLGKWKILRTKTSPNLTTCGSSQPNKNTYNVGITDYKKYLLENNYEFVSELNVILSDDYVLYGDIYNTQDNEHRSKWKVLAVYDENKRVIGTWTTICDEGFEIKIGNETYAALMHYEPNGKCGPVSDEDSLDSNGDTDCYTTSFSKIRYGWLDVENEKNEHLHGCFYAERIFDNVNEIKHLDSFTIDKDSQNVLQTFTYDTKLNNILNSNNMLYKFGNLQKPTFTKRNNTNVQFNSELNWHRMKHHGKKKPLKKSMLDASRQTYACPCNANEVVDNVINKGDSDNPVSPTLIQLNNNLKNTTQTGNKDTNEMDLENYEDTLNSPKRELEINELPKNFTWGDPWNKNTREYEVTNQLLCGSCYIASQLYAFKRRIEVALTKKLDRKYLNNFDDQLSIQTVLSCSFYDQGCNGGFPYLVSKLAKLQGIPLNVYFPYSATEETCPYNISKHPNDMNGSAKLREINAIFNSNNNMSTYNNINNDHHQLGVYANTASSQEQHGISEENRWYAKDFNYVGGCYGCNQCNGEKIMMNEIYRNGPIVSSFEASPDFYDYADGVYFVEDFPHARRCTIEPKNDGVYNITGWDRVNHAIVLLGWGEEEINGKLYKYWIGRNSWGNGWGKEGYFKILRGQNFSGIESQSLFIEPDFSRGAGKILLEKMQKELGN

The test has as its target DPAP1 (Plasmodium falciparum, UniProt Q8IIJ9). Briefly: primary screen, percent inhibition; read by cleavage of a fluorogenic dipeptide substrate; higher = more effect of the substance. More on the design: species or system P. falciparum D10 trophozoite lysates; single well.
Take `CC(=O)Nc1ccc(NC(=O)Cc2ccccc2F)cc1`: the “% Inhibition @ 10 uM” value is recorded as -2.09%.

For `CC(=O)c1cccc(NS(=O)(=O)c2ccc(Cl)cc2)c1`, the “% Inhibition @ 10 uM” value is -5.94%.

In the case of `CSc1nc(O)c2c(n1)N=C1CC(C)(C)CC(O)=C1C2c1cccs1` (centres unmarked), the “% Inhibition @ 10 uM” value is on record as 2.67%.

For the compound `CCCC(=O)c1c(Nc2ccccc2C)cc(C)oc1=O`, the “% Inhibition @ 10 uM” value came to 4.57%.

With `Cc1[nH]c2ccccc2c1/C=C1\S/C(=N/c2cccc(C(=O)O)c2)N(C)C1=O`, the “% Inhibition @ 10 uM” value is reported as -9.65%.

On to `Cc1cc(C)n2nc(CNS(=O)(=O)c3cccc4nsnc34)nc2n1`, for which the “% Inhibition @ 10 uM” value is recorded as -3.96%.

On to `Fc1ccccc1C1NCc2ccccc2-n2cccc21` (centres unmarked), for which the “% Inhibition @ 10 uM” value is on record as 1.01%.

As for `N#Cc1c(NC(=O)CC2Sc3ccccc3NC2=O)sc2c1CCCC2` (centres unmarked), the “% Inhibition @ 10 uM” value was -2.78%.

As for `Cc1sc(NC(=O)c2ccc(C(C)(C)C)cc2)c(C#N)c1C`, the “% Inhibition @ 10 uM” value was determined as 3.62%.

Consider `COc1cc(C)c(S(=O)(=O)NOCc2ccccc2)c(C)c1C`, for which the “% Inhibition @ 10 uM” value is on record as -6.62%.

For `Cc1cccc(S(=O)Cc2ccc(C(=O)NCCc3ccccc3)o2)c1` (centres unmarked), the “% Inhibition @ 10 uM” value is given as 2.3%.

In the case of `CC1(C)CC(=O)C2=C(C1)OC1=C(C(=O)CC(C)(C)C1)C2c1cc2c(cc1Cl)OCO2`, the “% Inhibition @ 10 uM” value was -2.97%.

Regarding `Cc1ccccc1NC(=O)CCC(=O)OC1CCC(C(C)(C)C)CC1` (centres unmarked), the “% Inhibition @ 10 uM” value turned out to be 4.54%.

As to `NC(=O)CS(=O)(=O)c1oc(-c2cccs2)nc1S(=O)(=O)c1ccc(F)cc1`, the “% Inhibition @ 10 uM” value was -1.22%.

Consider `COc1ccccc1/C=C/CN1CCCC1CO` (centres unmarked), for which the “% Inhibition @ 10 uM” value was -2.03%.

Turning to `O=C(NCc1cccnc1)c1cc(-c2ccccn2)nc2ccccc12`, the “% Inhibition @ 10 uM” value amounted to 1.07%.

`CSc1nc(Oc2ccc(C)c(C)c2)cc(-n2nc(C)c(C#N)c2N)n1`: the “% Inhibition @ 10 uM” value is reported as 0.121%.

Regarding `COc1ccc(NC(=O)/C(C#N)=C\c2c(C)[nH]c3ccccc23)cc1`, the “% Inhibition @ 10 uM” value is recorded as -1.32%.

`CCOc1ccc(/C=C/C(=O)Nc2ncc(Cc3ccc(C)cc3)s2)cc1`: the “% Inhibition @ 10 uM” value amounted to 20.8%.

For the compound `COc1ccc(OC)c(NC(=O)C2C3C4CCC(C4)C23)c1` (centres unmarked), the “% Inhibition @ 10 uM” value worked out at 4.98%.

For `CC1=C(C(=O)Nc2ccccc2)C(c2ccc(Br)cc2)N2C(=O)CSC2=N1` (centres unmarked), the “% Inhibition @ 10 uM” value is given as 8.19%.

Regarding `COc1ccccc1C1C2=C(O)CCCC2=Nc2ccc3ncccc3c21` (centres unmarked), the “% Inhibition @ 10 uM” value was determined as 2.38%.

Consider `CC1=CC(C)C2COC(c3cccnc3)C1C2C` (centres unmarked), for which the “% Inhibition @ 10 uM” value worked out at 5.16%.

For the compound `CCOC(=O)N1CCN(C(=O)C(CC(C)C)NC(=O)C2CCCCC2)CC1` (centres unmarked), the “% Inhibition @ 10 uM” value is recorded as -6.5%.

Consider `CCC(=O)/N=C(\N)Nc1nc(C)c2ccc(C)cc2n1`, for which the “% Inhibition @ 10 uM” value was -2.88%.

As to `CCSc1nnc(NC(=O)c2cccs2)s1`, the “% Inhibition @ 10 uM” value is -0.034%.

In the case of `N#CC1C(=O)N=C(N2CCN(C(c3ccccc3)c3ccccc3)CC2)NC12CCCCC2` (centres unmarked), the “% Inhibition @ 10 uM” value was -3.33%.

As to `CC(C)c1ccc(CNCCCSc2nnnn2-c2ccccc2)cc1`, the “% Inhibition @ 10 uM” value is given as -1.11%.

Consider `CC(=O)c1cccc(NC(=O)c2ccc(-c3ccc(Cl)cc3)o2)c1`, for which the “% Inhibition @ 10 uM” value turned out to be 15.5%.

For `CCOc1cc(C2C3=C(O)CCCC3=NC3=C2C(=O)CCC3)cc(Cl)c1OCC(=O)O` (centres unmarked), the “% Inhibition @ 10 uM” value was 2.7%.

Turning to `CC(NC(=O)Cn1cc(C(=O)C2CC2)c2ccccc21)c1ccccc1` (centres unmarked), the “% Inhibition @ 10 uM” value is 3.35%.

For the compound `CCOP(=O)(Cc1cccc(C(=O)O)c1)OCC`, the “% Inhibition @ 10 uM” value turned out to be 1.66%.

Turning to `O=C(Nc1ccccc1F)OCC1CCCN2CCCCC12` (centres unmarked), the “% Inhibition @ 10 uM” value turned out to be 2.49%.

For `Cc1ccc(C)c(N(CC(=O)Nc2ccccc2)S(C)(=O)=O)c1`, the “% Inhibition @ 10 uM” value is recorded as 0.00477%.

As to `COc1ccc(C2C(C(=O)Nc3ccccc3)=C(C)N=c3s/c(=C/c4cnn(C)c4C)c(=O)n32)cc1` (centres unmarked), the “% Inhibition @ 10 uM” value is 1.34%.

Turning to `OC(COCc1ccccc1)CN1CCN(c2ccccc2F)CC1` (centres unmarked), the “% Inhibition @ 10 uM” value is listed as -6.2%.

Consider `Oc1ccc(Br)cc1-c1nc2cc(Cl)cnc2[nH]1`, for which the “% Inhibition @ 10 uM” value worked out at 3.48%.

For the compound `Cc1[nH]c(-c2ccc(F)cc2)cc1C(=O)NCCC(C)C`, the “% Inhibition @ 10 uM” value is 3.64%.

As to `COc1ccccc1/C=C1\C(=O)NC(=S)N(c2ccc(Cl)cc2)C1=O`, the “% Inhibition @ 10 uM” value was -0.436%.

Take `O=C(O)CNC(=O)/C(=C\c1ccc2c(c1)OCO2)NC(=O)c1ccccc1`: the “% Inhibition @ 10 uM” value is -1.5%.

Turning to `CC(=O)N(C)c1ccc(NC(=O)C2CC2)cc1`, the “% Inhibition @ 10 uM” value came out at 3.58%.

Consider `C=CCn1c(C(C)O)nc2ccccc21` (centres unmarked), for which the “% Inhibition @ 10 uM” value is listed as 1%.

Take `CC(NCc1c(C(=O)O)n(Cc2ccccc2)c2ccccc12)c1ccccc1` (centres unmarked): the “% Inhibition @ 10 uM” value is 1.93%.

As to `CN(C)C(=O)c1ccc(-n2nc(C(F)(F)F)c3c2CCCC3)cc1`, the “% Inhibition @ 10 uM” value is -2.28%.

With `COc1ccc(C2=NN(CCC(=O)NC3CCCC(C)C3C)C(=O)CC2)cc1` (centres unmarked), the “% Inhibition @ 10 uM” value amounted to 1.62%.

With `Cc1ccc2c(c1)-c1onc(C(=O)NCC3CCCO3)c1CO2` (centres unmarked), the “% Inhibition @ 10 uM” value is -1.69%.

Turning to `CC(=O)C1=C(O)C(=O)N(c2nc3ccccc3s2)C1c1ccccc1` (centres unmarked), the “% Inhibition @ 10 uM” value was found to be 1.52%.

Regarding `CCCCc1ccc(C(=O)Nc2ccccc2O)cc1`, the “% Inhibition @ 10 uM” value is recorded as -11%.

As to `COc1ccc(-c2ccc(C(=O)O)c(Cl)n2)cc1`, the “% Inhibition @ 10 uM” value is recorded as 2.08%.

As for `CCn1c(=O)c2c3c(sc2n2c(SCc4ccc(OC)cc4)nnc12)CCCC3`, the “% Inhibition @ 10 uM” value is recorded as -3.13%.

Take `Cc1cc(C)c(/C=C(\C#N)C(N)=O)c(C)c1`: the “% Inhibition @ 10 uM” value worked out at 6.49%.

For the compound `Cc1cc(C)c(S(=O)(=O)NC2CCSC2=O)c(C)c1` (centres unmarked), the “% Inhibition @ 10 uM” value is 0.135%.

`Cc1ccc(C2NC(=O)c3ccccc3O2)cc1` (centres unmarked): the “% Inhibition @ 10 uM” value was -5.42%.

Turning to `CCCCNC(=O)OCCNS(=O)(=O)c1cccc([N+](=O)[O-])c1`, the “% Inhibition @ 10 uM” value was -4.02%.

As for `CC(c1ccc(C2CCCC2)cc1)N(C)C` (centres unmarked), the “% Inhibition @ 10 uM” value is listed as 0.658%.

Turning to `CC(C)N(CCCNC(=O)C1CCN(c2nnc(N3CCCC3=O)s2)CC1)Cc1ccccc1`, the “% Inhibition @ 10 uM” value is on record as 5.42%.

For the compound `CC(C)(C)NCCOc1cccc(Cl)c1Cl`, the “% Inhibition @ 10 uM” value came out at 2.16%.

Consider `CC1(C)CC2=NC3=C(C(=O)CC(C)(C)C3)C(c3cccc(Br)c3)C2=C(O)C1` (centres unmarked), for which the “% Inhibition @ 10 uM” value is on record as -0.413%.

For `CC1CCCC(NC2CC(=O)N(c3ccccc3)C2=O)C1C` (centres unmarked), the “% Inhibition @ 10 uM” value is given as 5.94%.

Turning to `O=C(Nc1ccncc1)c1ccc(NS(=O)(=O)c2cccc(Cl)c2)cc1`, the “% Inhibition @ 10 uM” value is reported as 2.17%.

Turning to `COc1cc2c(cc1OC)C(C(=O)NCc1cccnc1)C(c1cccs1)N(C)C2=O` (centres unmarked), the “% Inhibition @ 10 uM” value was determined as 4.06%.

Consider `Cc1ccccc1-c1nc(CN2CCC(C(=O)NCc3cccs3)CC2)c(C)o1`, for which the “% Inhibition @ 10 uM” value is -4.71%.

For `COc1cccc2c(O)c(NC(=O)N3CCC(CO)CC3)cnc12`, the “% Inhibition @ 10 uM” value came to 7.04%.

Consider `CN1C(=O)/C(=C\c2cccc(O)c2)S/C1=N/c1ccccc1`, for which the “% Inhibition @ 10 uM” value is reported as -4.43%.

Turning to `CCOC(=O)c1ccc(COc2ccc(C(C)C)cc2)o1`, the “% Inhibition @ 10 uM” value amounted to 0.413%.
